# Results: the supplement of paper PMC8728848
# This is one part of the list.
# B1: UEA-I (Ulex europaeus), P22972 (protein)
# chain: SDDLSFKFKNFSQNGKDLSFQGDASVIETGVLQLNKVGNNLPDETGGIARYIAPIHIWNCNTGEVASFITSFSFFMETSANPKAATDGLTFFLAPPDSPLRRAGGYFGLFEDTKDNDSSYQTVAVEFDTIGSPVNFDDPGFPHIGIDVNRVKSINAERWNKRYGLNNVANVEIIYEASSKTLTASLTYPSDQTSISVTSIVDLKEILPEWVSVGFSGGTYIGRQATHEVLNWYFTSNLIN
# Tests used:
# Assay in all cases: glycan array binding signal (z-score within array); higher = stronger binding
# Settings in all cases: glycan notation: IUPAC condensed, linker removed
# [1] = molecular target: Fuc(a1-2)[Gal(a1-3)]Gal(b1-4)Glc
# Summary of the method: (§1)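 The binding signal is a Z-score computed within each array and averaged over linkers. Arrays of the same protein sequence at different concentrations or buffers were also averaged together. Data originate from 3228 arrays in the Consortium for Functional Glycomics database, kept only where the protein sequence was available.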
# [2] = molecular target: Fuc(a1-2)[Gal(a1-3)]Gal(b1-4)GlcNAc
# Summary of the method: as §1
# [3] = molecular target: Fuc(a1-2)[Gal(a1-3)]Gal(b1-4)GlcNAc(b1-2)Man(a1-3)[Fuc(a1-2)[Gal(a1-3)]Gal(b1-4)GlcNAc(b1-2)Man(a1-6)]Man(b1-4)GlcNAc(b1-4)GlcNAc
# Summary of the method: as §1
# [4] = molecular target: Fuc(a1-2)[Gal(a1-3)]Gal(b1-4)GlcNAc(b1-2)Man(a1-3)[Fuc(a1-2)[Gal(a1-3)]Gal(b1-4)GlcNAc(b1-2)Man(a1-6)]Man(b1-4)GlcNAc(b1-4)[Fuc(a1-6)]GlcNAc
# Summary of the method: as §1
# [5] = molecular target: Fuc(a1-2)[Gal(a1-3)]Gal(b1-4)GlcNAc(b1-3)GalNAc
# Summary of the method: as §1
# [6] = molecular target: Fuc(a1-2)[Gal(a1-3)]Gal(b1-4)[Fuc(a1-3)]Glc
# Summary of the method: as §1
# [7] = molecular target: Fuc(a1-2)[Gal(a1-3)]Gal(b1-4)[Fuc(a1-3)]GlcNAc
# Summary of the method: as §1
# [8] = molecular target: Fuc(a1-2)[Gal(a1-3)]Gal(b1-4)[Fuc(a1-3)]GlcNAc(b1-3)GalNAc
# Summary of the method: as §1
# [9] = molecular target: Fuc(a1-2)[Gal(a1-4)]Gal(b1-4)GlcNAc
# Summary of the method: as §1
# [10] = molecular target: Fuc(a1-2)[GalNAc(a1-3)]Gal
# Summary of the method: as §1
# [11] = molecular target: Fuc(a1-2)[GalNAc(a1-3)]Gal(b1-3)GalNAc(a1-3)[Fuc(a1-2)]Gal(b1-4)GlcNAc
# Summary of the method: as §1
# [12] = molecular target: Fuc(a1-2)[GalNAc(a1-3)]Gal(b1-3)GlcNAc
# Summary of the method: as §1
# [13] = molecular target: Fuc(a1-2)[GalNAc(a1-3)]Gal(b1-3)GlcNAc(b1-2)Man(a1-3)[Fuc(a1-2)[GalNAc(a1-3)]Gal(b1-3)GlcNAc(b1-2)Man(a1-6)]Man(b1-4)GlcNAc(b1-4)GlcNAc
# Summary of the method: as §1
# [14] = molecular target: Fuc(a1-2)[GalNAc(a1-3)]Gal(b1-3)GlcNAc(b1-2)Man(a1-3)[Fuc(a1-2)[GalNAc(a1-3)]Gal(b1-3)GlcNAc(b1-2)Man(a1-6)]Man(b1-4)GlcNAc(b1-4)[Fuc(a1-6)]GlcNAc
# Summary of the method: as §1
# [15] = molecular target: Fuc(a1-2)[GalNAc(a1-3)]Gal(b1-3)GlcNAc(b1-3)GalNAc
# Summary of the method: as §1
# [16] = molecular target: Fuc(a1-2)[GalNAc(a1-3)]Gal(b1-4)Glc
# Summary of the method: as §1
# [17] = molecular target: Fuc(a1-2)[GalNAc(a1-3)]Gal(b1-4)GlcNAc
# Summary of the method: as §1
# [18] = molecular target: Fuc(a1-2)[GalNAc(a1-3)]Gal(b1-4)GlcNAc(b1-2)Man(a1-3)[Fuc(a1-2)[GalNAc(a1-3)]Gal(b1-4)GlcNAc(b1-2)Man(a1-6)]Man(b1-4)GlcNAc(b1-4)GlcNAc
# Summary of the method: as §1
# [19] = molecular target: Fuc(a1-2)[GalNAc(a1-3)]Gal(b1-4)GlcNAc(b1-2)Man(a1-3)[Fuc(a1-2)[GalNAc(a1-3)]Gal(b1-4)GlcNAc(b1-2)Man(a1-6)]Man(b1-4)GlcNAc(b1-4)[Fuc(a1-6)]GlcNAc
# Summary of the method: as §1
# [20] = molecular target: Fuc(a1-2)[GalNAc(a1-3)]Gal(b1-4)GlcNAc(b1-3)Gal(b1-4)GlcNAc
# Summary of the method: as §1
# [21] = molecular target: Fuc(a1-2)[GalNAc(a1-3)]Gal(b1-4)GlcNAc(b1-3)Gal(b1-4)GlcNAc(b1-3)Gal(b1-4)GlcNAc
# Summary of the method: as §1
# [22] = molecular target: Fuc(a1-2)[GalNAc(a1-3)]Gal(b1-4)GlcNAc(b1-3)GalNAc
# Summary of the method: as §1
# [23] = molecular target: Fuc(a1-2)[GalNAc(a1-3)]Gal(b1-4)[Fuc(a1-3)]GlcNAc
# Summary of the method: as §1
# [24] = molecular target: Fuc(a1-2)[GalNAc(a1-3)]Gal(b1-4)[Fuc(a1-3)]GlcNAc(b1-3)GalNAc
# Summary of the method: as §1
# [25] = molecular target: Fuc(a1-2)[GalNAc(a1-4)]Gal(b1-4)GlcNAc
# Summary of the method: as §1
# [26] = molecular target: Fuc(a1-2)[GalNAc(b1-3)]Gal
# Summary of the method: as §1
# Fuc(a1-3)GlcNAc = molecular target: Fuc(a1-3)GlcNAc
# Summary of the method: as §1
# [27] = molecular target: Fuc(a1-3)[Gal(b1-4)]Glc6S
# Summary of the method: as §1
# [28] = molecular target: Fuc(a1-3)[Gal(b1-4)]GlcNAc
# Summary of the method: as §1
# [29] = molecular target: Fuc(a1-3)[Gal(b1-4)]GlcNAc(b1-2)Man(a1-3)[Fuc(a1-3)[Gal(b1-4)]GlcNAc(b1-2)Man(a1-6)]Man(b1-4)GlcNAc(b1-4)GlcNAc
# Summary of the method: as §1
# [30] = molecular target: Fuc(a1-3)[Gal(b1-4)]GlcNAc(b1-2)Man(a1-3)[Fuc(a1-3)[Gal(b1-4)]GlcNAc(b1-2)Man(a1-6)]Man(b1-4)GlcNAc(b1-4)[Fuc(a1-6)]GlcNAc
# Summary of the method: as §1
# [31] = molecular target: Fuc(a1-3)[Gal(b1-4)]GlcNAc(b1-3)Gal(b1-3)[Fuc(a1-4)]GlcNAc
# Summary of the method: as §1
# [32] = molecular target: Fuc(a1-3)[Gal(b1-4)]GlcNAc(b1-3)GalNAc
# Summary of the method: as §1
# [33] = molecular target: Fuc(a1-3)[Gal(b1-4)]GlcNAc(b1-4)Gal(b1-4)[Fuc(a1-3)]GlcNAc
# Summary of the method: as §1
# [34] = molecular target: Fuc(a1-3)[Gal(b1-4)]GlcNAc(b1-4)Gal(b1-4)[Fuc(a1-3)]GlcNAc(b1-4)Gal(b1-4)[Fuc(a1-3)]GlcNAc
# Summary of the method: as §1
# [35] = molecular target: Fuc(a1-3)[Gal(b1-4)]GlcNAc(b1-6)GalNAc
# Summary of the method: as §1
# [36] = molecular target: Fuc(a1-3)[Gal(b1-4)]GlcNAc(b1-6)[Gal(b1-3)GlcNAc(b1-3)]Gal(b1-4)Glc
# Summary of the method: as §1
# [37] = molecular target: Fuc(a1-3)[Gal(b1-4)]GlcNAc(b1-6)[Neu5Ac(a2-3)Gal(b1-3)]GalNAc
# Summary of the method: as §1
# [38] = molecular target: Fuc(a1-3)[Gal(b1-4)]GlcNAc6S
# Summary of the method: as §1
# [39] = molecular target: Fuc(a1-3)[Gal3S(b1-4)]GlcNAc
# Summary of the method: as §1
# [40] = molecular target: Fuc(a1-3)[Gal3S(b1-4)]GlcNAc6S
# Summary of the method: as §1
# [41] = molecular target: Fuc(a1-3)[GalNAc(b1-4)]GlcNAc
# Summary of the method: as §1
# Fuc(a1-4)GlcNAc = molecular target: Fuc(a1-4)GlcNAc
# Summary of the method: as §1
# Fuc(b1-3)GlcNAc = molecular target: Fuc(b1-3)GlcNAc
# Summary of the method: as §1
# Gal(a1-2)Gal = molecular target: Gal(a1-2)Gal
# Summary of the method: as §1
binder,measurement,setting,value
B1,glycan array binding signal (z-score),[1],-0.182
same,glycan array binding signal (z-score),[2],-0.182
same,glycan array binding signal (z-score),[3],-0.187
same,glycan array binding signal (z-score),[4],-0.167
same,glycan array binding signal (z-score),[5],-0.178
same,glycan array binding signal (z-score),[6],-0.176
same,glycan array binding signal (z-score),[7],-0.173
same,glycan array binding signal (z-score),[8],-0.182
same,glycan array binding signal (z-score),[9],5.33
same,glycan array binding signal (z-score),[10],-0.182
same,glycan array binding signal (z-score),[11],-0.187
same,glycan array binding signal (z-score),[12],-0.178
same,glycan array binding signal (z-score),[13],-0.185
same,glycan array binding signal (z-score),[14],-0.148
same,glycan array binding signal (z-score),[15],-0.158
same,glycan array binding signal (z-score),[16],-0.175
same,glycan array binding signal (z-score),[17],-0.183
same,glycan array binding signal (z-score),[18],-0.181
same,glycan array binding signal (z-score),[19],-0.155
same,glycan array binding signal (z-score),[20],-0.179
same,glycan array binding signal (z-score),[21],-0.1
same,glycan array binding signal (z-score),[22],-0.182
same,glycan array binding signal (z-score),[23],-0.174
same,glycan array binding signal (z-score),[24],-0.149
same,glycan array binding signal (z-score),[25],4.61
same,glycan array binding signal (z-score),[26],-0.168
same,glycan array binding signal (z-score),Fuc(a1-3)GlcNAc,0.763
same,glycan array binding signal (z-score),[27],-0.17
same,glycan array binding signal (z-score),[28],-0.076
same,glycan array binding signal (z-score),[29],-0.182
same,glycan array binding signal (z-score),[30],-0.169
same,glycan array binding signal (z-score),[31],-0.18
same,glycan array binding signal (z-score),[32],-0.172
same,glycan array binding signal (z-score),[33],-0.18
same,glycan array binding signal (z-score),[34],-0.178
same,glycan array binding signal (z-score),[35],-0.166
same,glycan array binding signal (z-score),[36],-0.179
same,glycan array binding signal (z-score),[37],-0.09
same,glycan array binding signal (z-score),[38],-0.173
same,glycan array binding signal (z-score),[39],-0.176
same,glycan array binding signal (z-score),[40],0.023
same,glycan array binding signal (z-score),[41],-0.16
same,glycan array binding signal (z-score),Fuc(a1-4)GlcNAc,0.333
same,glycan array binding signal (z-score),Fuc(b1-3)GlcNAc,-0.178
same,glycan array binding signal (z-score),Gal(a1-2)Gal,-0.167
